Out of some 310,000 compounds screened, about 14,000 (4.5%) showed an effect of 50% or more. The effect is printed as a negative number. The list shows a part of the results.
What follows are molecules tested against human ether-à-go-go-related gene (hERG) potassium channel (human, UniProt Q12809) (assay: primary screen, population patch clamp on CHO cells stably expressing hERG).
Sequence of human ether-à-go-go-related gene (hERG) potassium channel (Q12809 whole entry, looked up): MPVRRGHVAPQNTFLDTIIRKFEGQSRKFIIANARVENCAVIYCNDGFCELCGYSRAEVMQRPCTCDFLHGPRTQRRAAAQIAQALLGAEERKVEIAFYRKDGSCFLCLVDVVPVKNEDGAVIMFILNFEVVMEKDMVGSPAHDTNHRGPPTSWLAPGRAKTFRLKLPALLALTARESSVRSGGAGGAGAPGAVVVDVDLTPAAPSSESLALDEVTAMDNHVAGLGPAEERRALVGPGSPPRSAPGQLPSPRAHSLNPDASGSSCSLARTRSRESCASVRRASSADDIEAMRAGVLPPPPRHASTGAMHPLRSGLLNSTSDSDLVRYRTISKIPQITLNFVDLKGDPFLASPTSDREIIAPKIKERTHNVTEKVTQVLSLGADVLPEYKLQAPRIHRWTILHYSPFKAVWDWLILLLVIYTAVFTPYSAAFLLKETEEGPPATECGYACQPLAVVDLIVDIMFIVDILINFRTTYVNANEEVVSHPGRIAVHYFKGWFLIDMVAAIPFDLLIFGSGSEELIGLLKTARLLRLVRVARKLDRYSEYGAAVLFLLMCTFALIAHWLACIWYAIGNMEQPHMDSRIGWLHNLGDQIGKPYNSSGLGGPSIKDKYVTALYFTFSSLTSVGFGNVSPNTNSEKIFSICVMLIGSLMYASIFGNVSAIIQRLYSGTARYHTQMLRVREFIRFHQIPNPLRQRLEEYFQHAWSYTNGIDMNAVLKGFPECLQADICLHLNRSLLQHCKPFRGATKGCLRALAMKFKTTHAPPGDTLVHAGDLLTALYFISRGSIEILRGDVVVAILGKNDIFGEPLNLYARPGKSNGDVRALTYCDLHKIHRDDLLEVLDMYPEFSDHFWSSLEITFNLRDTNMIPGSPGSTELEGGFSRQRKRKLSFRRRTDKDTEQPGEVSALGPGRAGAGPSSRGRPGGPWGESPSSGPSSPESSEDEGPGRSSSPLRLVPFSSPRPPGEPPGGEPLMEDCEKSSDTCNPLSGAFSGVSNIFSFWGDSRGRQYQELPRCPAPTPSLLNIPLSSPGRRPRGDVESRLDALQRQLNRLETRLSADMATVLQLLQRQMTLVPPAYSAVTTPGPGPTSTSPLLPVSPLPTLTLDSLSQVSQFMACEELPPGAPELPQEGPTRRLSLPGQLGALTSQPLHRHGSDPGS
`Cc1ccccc1CSCCNC(=O)CN(c1ccc2c(c1)OCO2)S(C)(=O)=O` was tested, and the “hERG current change (%, negative = inhibition) at 10uM” value was -30.7%. In the case of `O=C(CCSc1nnc(-c2ccncc2)o1)Nc1ccc(Cl)cc1`, the “hERG current change (%, negative = inhibition) at 10uM” value is reported as -34%. With `CCOC(=O)c1cc(-c2cccs2)nn1CCC#N` the “hERG current change (%, negative = inhibition) at 10uM” value was -1.57%. In the case of `O=C(O)C1C2C=CC(C2)C1C(=O)OCC1CCCO1` (stereo not shown), the “hERG current change (%, negative = inhibition) at 10uM” value is reported as -15.9%. With `O=c1cc(-c2ccc(F)cc2)[nH][nH]1` the “hERG current change (%, negative = inhibition) at 10uM” value was 15%. `CC1Oc2ccccc2N(CC(=O)Nc2ccc(F)cc2)C1=O` (stereo not shown) was tested, and the “hERG current change (%, negative = inhibition) at 10uM” value was 10.5%. For `N#CC1(Cc2ccccc2Cl)c2ccccc2C=CN1C(=O)c1ccccc1` (stereo not shown), the “hERG current change (%, negative = inhibition) at 10uM” value was 10.3%. In the case of `O=C(COC(=O)C1(c2ccc(F)cc2)CCCC1)N1CCc2ccccc21`, the “hERG current change (%, negative = inhibition) at 10uM” value is reported as 6.43%. With `CCOC(=O)c1ccc(NC(=S)N(CCCN2CCCCC2)Cc2ccco2)cc1` the “hERG current change (%, negative = inhibition) at 10uM” value was -72.7%. With `CN(CC(=O)Nc1ccc([N+](=O)[O-])cc1Br)Cc1c(F)cccc1Cl` the “hERG current change (%, negative = inhibition) at 10uM” value was 30.1%. With `N=c1nc(N2CCCCC2)cc(N)n1O` the “hERG current change (%, negative = inhibition) at 10uM” value was 0.243%. In the case of `CCC(C)n1c(-c2ccco2)nc2nc3ccccc3nc21` (stereo not shown), the “hERG current change (%, negative = inhibition) at 10uM” value is reported as -3.86%. For `CC(C)CCN(C(=O)C1CCCC1)c1c(N)n(Cc2ccccc2)c(=O)[nH]c1=O`, the “hERG current change (%, negative = inhibition) at 10uM” value was 13.6%. In the case of `NC(=O)c1oc2ccccc2c1NC(=O)C1COc2ccccc2O1` (stereo not shown), the “hERG current change (%, negative = inhibition) at 10uM” value is reported as 23.5%. For `O=C(Cn1c2ccccc2c2nc3n(c(=O)c21)CCS3)Nc1ccccc1C(F)(F)F`, the “hERG current change (%, negative = inhibition) at 10uM” value was 15.1%. With `CCCn1nnc(NC(=O)COc2ccc(C3CCCCC3)cc2)n1` the “hERG current change (%, negative = inhibition) at 10uM” value was -31.1%. For `O=C(NCC1CCCO1)c1ccc(S(=O)(=O)N2CCCCC2)cc1` (stereo not shown), the “hERG current change (%, negative = inhibition) at 10uM” value was -0.0118%. `COc1ccc(C(c2nnnn2Cc2ccccc2)N2CCN(C(=O)c3ccco3)CC2)cc1OC.Cl` (stereo not shown) was tested, and the “hERG current change (%, negative = inhibition) at 10uM” value was -19.9%. `CC1N(C)c2cccc3cccc(c23)N1C` was tested, and the “hERG current change (%, negative = inhibition) at 10uM” value was -3.85%. In the case of `CCOC(=O)C1=C(O)C(=O)N(c2ccc(S(N)(=O)=O)cc2)C1c1ccccc1` (stereo not shown), the “hERG current change (%, negative = inhibition) at 10uM” value is reported as 7.92%. In the case of `Cc1cc(NC(=O)CN2C(=O)CC(c3ccco3)Sc3ccccc32)no1` (stereo not shown), the “hERG current change (%, negative = inhibition) at 10uM” value is reported as -61.8%. For `COc1ccc(Nc2cc(C)nc(N3CCN(C(=O)c4ccc5c(c4)OCO5)CC3)n2)cc1`, the “hERG current change (%, negative = inhibition) at 10uM” value was 7.63%. For `O=[N+]([O-])c1ccccc1Oc1ccc(Cl)c2cccnc12`, the “hERG current change (%, negative = inhibition) at 10uM” value was 10.4%. For `CNC(=S)Nc1ccc(Nc2ccccc2)cc1`, the “hERG current change (%, negative = inhibition) at 10uM” value was 5.02%. `O=C(Nc1ccc(S(=O)(=O)N2CCOCC2)cc1)c1ccccc1Br` was tested, and the “hERG current change (%, negative = inhibition) at 10uM” value was -6.72%.

Reference: paper PMC4336329 (PLoS ONE, 2015)
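Also: peak tail current of the secondary pulse compared with the same well before compound.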
